Laboratory results taken from the supplement of paper PMC3334620.
Whole data set: some 33,000 sequences, median “E-score (-0.5 to 0.5)” near -0.012, cut for the highest 2% near 0.27. Some of the results follow.

Biological target: T1, Vhr1 (UniProt P40522)
T1 sequence: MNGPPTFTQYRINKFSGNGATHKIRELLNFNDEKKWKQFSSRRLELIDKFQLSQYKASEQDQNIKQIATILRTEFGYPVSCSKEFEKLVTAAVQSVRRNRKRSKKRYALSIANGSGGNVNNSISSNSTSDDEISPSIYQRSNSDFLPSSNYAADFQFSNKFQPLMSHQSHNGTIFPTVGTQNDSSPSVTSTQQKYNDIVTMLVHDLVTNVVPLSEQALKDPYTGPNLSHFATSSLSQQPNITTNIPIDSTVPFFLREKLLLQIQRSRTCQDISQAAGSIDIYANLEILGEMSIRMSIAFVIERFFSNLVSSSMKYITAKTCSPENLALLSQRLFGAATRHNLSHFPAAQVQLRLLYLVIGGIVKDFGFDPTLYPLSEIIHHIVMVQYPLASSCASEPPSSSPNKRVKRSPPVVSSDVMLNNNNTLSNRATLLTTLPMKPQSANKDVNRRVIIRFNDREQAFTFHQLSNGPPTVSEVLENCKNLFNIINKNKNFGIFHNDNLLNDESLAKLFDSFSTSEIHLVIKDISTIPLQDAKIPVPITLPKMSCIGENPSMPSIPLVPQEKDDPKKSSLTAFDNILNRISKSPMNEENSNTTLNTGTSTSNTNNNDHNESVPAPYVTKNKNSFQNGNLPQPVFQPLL
Experiment: PBM E-score (8-mer binding enrichment) (E-score (-0.5 to 0.5)); higher = stronger / more preferred TF binding; most listed sequences are background and not binding sites
Settings: protein concentration: 200 nM; construct: GST-full length
Protocol: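 Universal 'all 10-mer' protein binding microarrays (Agilent AMADID 015681) probed with GST-tagged S. cerevisiae TFs (full-length or DBD) made by in vitro transcription/translation (PURExpress), about 100-200 nM. Bound TF was detected with fluorescent anti-GST. Each ungapped 8-mer (which stands for itself and its reverse complement) is scored by the PBM enrichment score (E-score), a modified Wilcoxon-Mann-Whitney statistic from -0.5 to +0.5, computed with the Universal PBM Analysis Suite. Scale: above 0.35 generally sequence-specific binding.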

Sequence | PBM E-score
CTCAATCC | -0.0448
GGCGACTA | 0.212
ACGCCAGC | -0.0673
TCCCGACA | 0.094
AGACTTCA | -0.355
AATAAGAA | -0.0239
AAAGAATA | -0.0407
GTCCTCTA | -0.174
ATGGGCCC | -0.027
CAACGGAC | -0.158
CTTCGTGC | 0.0452
AGGGCGTC | -0.161
CCTTGAAG | -0.196
ACCCCATA | 0.139
AGAAGGAT | -0.286
GCGTTATA | -0.0946
GACTCCCA | 0.243
TACGTGCA | 0.08
CACATCAA | 0.217
GGGTCGTA | -0.0961
GACACGAA | -0.0279
GAATCAAC | 0.247
AGCTCTAG | -0.176
CATGGGTC | 0.221
GCATGCAC | -0.00024

Sequence | PBM E-score
CCGAATCA | 0.288
GCCATTAA | 0.00149
TAGGGGAA | -0.0316
ACAGTCCC | -0.0066
ATGGAGTG | -0.0367
ACTATCAT | 0.251
AAGTGAAG | -0.187
AAACGGCT | -0.125
CGTGCCTA | -0.244
CTCAGGCC | -0.146
ATCCCCCC | -0.0929
ACCGCAAC | 0.255
CGTATATC | -0.0872
CGCCAGGC | 0.126
CTTTTCCA | -0.21
AGTACTCG | 0.224
ACTCCGCT | 0.143
AGGTTAGA | -0.15
AGTTCACA | -0.0541
TCAATCAA | 0.143
ACGGAAGC | -0.0873
CACCCTGC | 0.215
GCATTCCC | -0.0631
TACCTCAA | -0.209
AAGGGTCA | -0.0962

Sequence | PBM E-score
ATCTTCTA | -0.0197
ACATACCC | 0.178
GCAAAGGA | -0.095
ATCAACTA | 0.144
ATATTCCC | -0.0984
GAATTGCC | -0.264
GACCAACC | 0.00776
AAAGCAGA | -0.197
CAAGAGGA | 0.0561
CGCCAGCG | -0.119
TTGTGAAA | -0.058
ACATGATC | 0.154
AAGGTTTA | -0.117
GCTCTCCC | -0.0667
AAAATATT | -0.0198
AGTGGACC | -0.216
AATGGGGC | -0.0557
ATGTCCGA | -0.123
CGATTTAA | -0.137
CATTAAAC | -0.154
CTGTAACC | 0.112
CAGGGATG | 0.159
CATAAATC | 0.141
GATTTGGA | -0.0941
GAGTAACA | 0.286

Sequence | PBM E-score
ATTATGCA | 0.0497
AAAGCATG | -0.0101
CCGGGAAA | -0.0862
GGGAGGGA | 0.134
AACCATGA | 0.351
CAGGTTAC | -0.0849
CGGAGAGA | 0.0791
CAGGATGG | 0.0704
TAGCGATA | 0.097
AGGCGAAA | -0.128
GACGGGAC | -0.136
GAATCCAA | 0.0442
AAGGAAAC | -0.195
ACCCAGTG | 0.118
ACACACTA | 0.215
AATGCATT | 0.112
ATCCAACG | -0.0529
CTGGGCTA | -0.0712
CTATTTCA | 0.0766
CGCCAGGA | 0.00566
AGCGACGG | 0.0711
ACGAGCAG | 0.0226
AAATCATA | 0.227
AAGCGAAC | -0.088
CGCGCTCA | 0.217

Sequence | PBM E-score
ATACGACC | 0.0624
CGGGCGAA | -0.0145
GGGCGAAC | 0.182
GTCGGTTA | 0.00288
ACCGTCGT | 0.027
CATCTTCC | 0.099
ACATTGGC | 0.0163
CACCGGAC | 0.149
CCTGGCTA | 0.0159
CACAAGGC | -0.112
CAGGAGTC | 0.373
CCCTCAGG | -0.226
ATGATGTC | 0.131
ACTGAAAT | 0.0362
AGTTACTG | 0.153
AGAAATGG | -0.00785
CACATGTG | 0.239
CATCAACA | 0.155
AGACTGGA | 0.0391
AATGTCCG | 0.0003
TGAGCTCA | 0.232
AAGCCCAA | -0.181
CACAGAGA | -0.00376
CAATCTAG | -0.105
CAACCGGA | 0.0826

Sequence | PBM E-score
CGGTAAAA | -0.0687
GACCTGCC | -0.031
CACTAACG | -0.0325
CCTTCCTC | -0.278
GCGTGACC | -0.0398
GAATATTC | 0.00293
ACTCGGGA | 0.236
CGATCCGC | 0.0637
AGTATTAC | 0.0584
AACGTGGC | -0.0566
CGAAAAGA | 0.156
ATGTAGAA | -0.129
AAATCGCC | -0.108
CAATCAAG | 0.00756
CACAGTTA | 0.21
ACGATACC | 0.106
CGTGTCTC | 0.196
AAGCAGAT | -0.0388
TGCGATAA | 0.121
CGTACACA | 0.238
ATGTCACC | 0.0142
TGCAAACA | -0.164
ACTAGGCG | 0.252
CGAATCGA | 0.193
CGTTGCTC | -0.0648

Sequence | PBM E-score
ATCCCGCG | 0.164
GTTGTAGA | -0.181
GAATGTCC | -0.149
AAGGATCA | -0.0925
ATGAAGAC | -0.0146
AACTTTAA | -0.0951
TAGCTGGA | -0.0696
GAAAGCCA | -0.191
CTGTCACA | 0.025
AAAAATTA | -0.0637
ATGCGTGC | -0.0589
ATGAGTTG | 0.173
CGTACGCC | -0.202
GGGAGCTA | -0.161
ATAAGGCA | -0.128
CTCGTGGA | -0.00995
GAGCGTGA | 0.0478
AGTCTCCG | 0.177
GCTGCCAC | -0.0308
AAGGACAT | -0.195
GAAAAATA | -0.226
ACTGACGA | 0.122
AGATACTC | 0.171
AACACTCA | 0.259
AGGAGCCA | 0.0479

Sequence | PBM E-score
TGGTGGAA | -0.159
ACAGGCCG | -0.016
GAGTACTC | 0.345
GCAGTGTA | 0.0845
ATGCCCGG | -0.0554
AAAATCCT | -0.144
CCTGGATA | -0.104
CCGCCGCG | 0.199
ATCCTTTG | -0.0873
ACCTTTTA | -0.189
GATCGGCC | -0.045
GTATGCAC | 0.0689
CACTTTTC | -0.0795
ACATCGCG | 0.183
TAAGTTAA | -0.166
GATTGTGC | 0.187
CCTGCCGC | -0.111
TCGGTAAA | -0.103
ACCAGCTC | 0.0604
CGTCAACG | -0.0358
AGATTCGC | 0.0358
ATACCACG | 0.0921
ATGGCGTG | 0.066
CCTAGACG | -0.0101
CTAATTTA | -0.11

Sequence | PBM E-score
CACTGCAG | -0.112
CGTGTACA | 0.103
CACTTTAA | 0.0651
ACCAAAGT | -0.0249
AACCAGTG | -0.0631
CGAAGCAG | 0.0148
TTCCTCAA | -0.19
ACAGCTGG | -0.119
GTAAAAGA | -0.14
GAAAGCGC | -0.0855
GAACCTTC | -0.203
CGATAGCG | 0.0302
CCAGCGGA | -0.212
ACTAAATA | 0.0772
ACGCATGC | 0.16
CCCTCTTA | -0.121
AAGGCTTG | -0.223
CAACGTAC | -0.0809
ACAACACT | 0.223
